The supplement of paper PMC11417369
This is one part of the list.

System: PfHDP1 homeodomain (GST-tagged)
Assay: gcPBM binding intensity (ln(normalized median fluorescence intensity)); higher = stronger DNA binding
Method in brief: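 DNA-binding domains from P. falciparum, fused to GST and produced in E. coli, were put on an Agilent 4 × 180k double-stranded probe array for 1 h in 1× PBS holding 1% milk, 0.2 mg/ml BSA, 0.5% salmon testes DNA and 0.03% Triton X-100. Probes were primer-extended, 36 bp long and drawn from intergenic genomic regions, with negative controls included. After Alexa488 anti-GST antibody detection and a 488 nm scan, binding intensity was set as the highest Masliner-normalised natural-log median intensity across replicate spots of either probe orientation.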

Row | Sequence | gcPBM binding intensity (ln)
1 | GACATTTGTGAGCTTGAGCCGTCAAACCACTAAATA [CACACA_negctrl_site552] | 5.96
2 | AAAATATGATATGAAAAATTTGTTATATATACATAA [CACACA_negctrl_site1529] | 6.15
3 | TAATTATAAATTATAGTGCATAAAATTGTAGCATAA | 9.63
4 | ATATATATATATATATGTACATATCACTTTAAATAT [XGTACX_site3859] | 9.35
5 | TTTTCTTAAAAAATCAAACACACATATATATATACA [CACACA_site2297] | 6.62
6 | ATGATAGTATGTATGAGTACGAAAAAAAAAAATTAA [XGTACX_site32] | 6.45
7 | TGTGGGAATAACCACACACACACACCCATATATATA [CACACA_site5876] | 6.79
8 | ATATATATATATATTGTACACACATTTATGCATATA [CACACA_site9055] | 9.06
9 | AAATGCAAATGATGATGTACATACAAAAATTAAATT [XGTACX_site5323] | 7.1
10 | AAAATGTATATATAAACATGCACACGTGGTTGTATA [TGCATGCA_site847] | 8.08
11 | TATCGTTATATAATATGTACATATAAAATTTAAATT [XGTACX_site1887] | 6.94
12 | TCTTAAATTTCTTTATGTACATAATTAATATATTTA [XGTACX_site4456] | 6.46
13 | TATATATTATGACCACCACACACCTATACGCATAAC [CACACA_site2447] | 6.95
14 | AAAAAAAAAGTATTATGTACATAAAAATAAAAAAAT [XGTACX_site4166] | 6.79
15 | GTTTATGTTAAACCATGTACTTAATATTTTATTCTT [XGTACX_site3761] | 6.29
16 | TATGATTCATAATAGTGTACGTAAAAATTGACTAGA [XGTACX_site5376] | 7.52
17 | ATTGTAGAATTTAATAGTACTCACGAATAAAATAAA [XGTACX_site6280] | 6.39
18 | AAAAATATATAAAGAAAAAGAATATAATATAAAATA [GTGCAC_negctrl_site208] | 6.42
19 | AAAAATAAATATACATGTACTTAAAATAATCGAATA [XGTACX_site8432] | 6.58
20 | TATATTTTTATATTTTGTACATATAGTAAATATAAA [XGTACX_site4768] | 6.2
21 | CTCAAACAATATTATATAATAAAGTACATATATATT [CACACA_negctrl_site446] | 6.75
22 | GAACAGAAAAAGAATAGTACATATATATATATATAT [XGTACX_site3700] | 9.48

Row | Sequence | gcPBM binding intensity (ln)
23 | ACGTATCAAAAAATTTGTACATATATATATATATAT [XGTACX_site1024] | 9.41
24 | ATTCAAAATAATAGAATTGTTAAAGTTGTAAATTGA [CACACA_negctrl_site727] | 6.16
25 | TATAATATGAACAGTACACACAAAATAAATTCGTAT [CACACA_site3586] | 6.41
26 | TATACATATATATATACACACATATATATATATACA [CACACA_site402] | 6.68
27 | ACGCATGTAATTTATACACACATTCTTTTATATTTT [CACACA_site3708] | 6.58
28 | AAATTATTATCGTTAATATGTATATATGTGCCAAGT [TGCATGCA_negctrl_site557] | 6.52
29 | AAAACATACAGATATACACACATATATATATATATA [CACACA_site5091] | 9.42
30 | ATATTTAAACGATGGTGTACATATATTACAAGTTGT [XGTACX_site1743] | 7.03
31 | ATATAGATCTACACTGCACACATTTTTAACACTGCT [CACACA_site1882] | 8.17
32 | GCATTTTAATAATTATGTACATATATTATTCCTGGT [XGTACX_site3664] | 7.07
33 | TTCCATCAAAAAATGGGTACACATTATAGAAATATT [XGTACX_site8482] | 6.39
34 | CATATACGCAAACACACACACATATATATATATATA [CACACA_site501] | 9.26
35 | AGGTATATATATTTATGTACTTAAAATGAGAAAATA [XGTACX_site8337] | 6.47
36 | TATAATAATATTTATTGTACAATTAGGTTAATTCAT [XGTACX_site1986] | 6.67
37 | TTGAAATTAAATGACATACACACTATATTATATATT [CACACA_site3135] | 6.24
38 | AAAAATAAAGTAAAAGCATGCTAGTATATGGAAAAT [TGCATGCA_site486] | 7.36
39 | AATATACGAAATTGTGCACACATATATTTATGTATG [CACACA_site1510] | 10.8
40 | TAAAATGAAGGAATATGTACATAAATAAACATATAT [XGTACX_site6266] | 6.31
41 | CGATATAAAGATATTAGTACATATGCATGCTTGTCT [XGTACX_site8629] | 6.2
42 | CATATATGATATATTAGTACATATATATATATATAT [XGTACX_site1574] | 9.32
43 | AATCTAATGTAATGCATACACACAACTATCCATCAA [CACACA_site535] | 6.65
44 | TTGTTTTTTTTTGGCTGTACGTTCATAAATTTTTTT [XGTACX_site4165] | 6.73
